# Measurements: the RNAGym collection of RNA variant scans (doi:10.1093/nar/gkz1192)
# The source gives no read counts; variants with many changes may rest on few reads.
# B1: CPEB3 Ribozyme (parent)
# chain: UAACAGGGGGCCACAGCAGAAGCGUUCACGUCGCAGCCCCUGUCAGAUUCUGGUGAAUCUGCGAAUUCUGCUGUAUAUCUC
# Variants of: B1
# Assay: self-cleavage, relative activity (ratio to wild type); higher = more cleavage; in vitro, sequencing
# Procedure, shortened: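 Relative activity compares each variant's cleaved/total read fraction with that of the unmutated ribozyme. To get these fractions, barcoded CPEB3 ribozyme libraries from rounds of error-prone PCR were transcribed with T7 RNA polymerase for 5 hours at 37°C and then given 15 min of DNase I treatment before EDTA was added. The RNAs were reverse transcribed with template switching and sequenced on Illumina, and DNA sequencing linked barcodes to variants. A minimum of 5 reads applied, and three batches were averaged.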
row,Variant,self-cleavage
1,A15G U25C U41A A57G G63A U72A,0.07
2,A15G U25C U41C,0.42
3,A15G U25C U41C A45G,0.04
4,A15G U25C U41C A65G,0.29
5,A15G U25C U43A,0.09
6,A15G U25C U51G,0.34
7,A15G U25C U54C G55A U66C A77G,0.11
8,A15G U25C U67C U69C,0.3
9,A15G U26A A28G C32G U48A U54A U72A,0.11
10,A15G U26A A47G,0.85
11,A15G U26A A75G,0.75
12,A15G U26A C71A,0.15
13,A15G U26A U43C U66C U69A,0.13
14,A15G U26A U54A,0.75
15,A15G U26A U54A U60A,0.09
16,A15G U26A U54A U67C A75G,0.12
17,A15G U26A U58C,0.35
18,A15G U26C A45G,0.35
19,A15G U26C A45G U48C,0.21
20,A15G U26C G30A U41C,0.08
21,A15G U26C U41A,0.35
22,A15G U26C U41C,0.33
23,A15G U26C U51A G63U A65U,0.12
24,A15G U26C U54A A57U A64G,0.23

row,Variant,self-cleavage
1,A15G U26C U54A U67C,0.14
2,A15G U26C U60G A64G,0.22
3,A15G U26C U66A,0.32
4,A15G U26C U69C G70U,0.14
5,A15G U26C U78C C81U,0.38
6,A15G U26G C32U A57G A65G,0.11
7,A15G U31A A35U G63C,0.24
8,A15G U31A A56G U66A,0.15
9,A15G U31A C62U,0.06
10,A15G U31A G33A G52A C62U G73A,0.06
11,A15G U31A U41A C50A,0.14
12,A15G U31A U60C U69A U78C U80C,0.23
13,A15G U31C A64G A65G,0.31
14,A15G U31C A64U U74C,0.3
15,A15G U31C C32U U54A U67C,0.09
16,A15G U31C C50A,0.11
17,A15G U31C U41A A57G U66C,0.06
18,A15G U31C U41A U60C A65G,0.04
19,A15G U31C U41C,0.24
20,A15G U31C U48A,0.06
21,A15G U31C U49C,0.32
22,A15G U41A A64G A75U,0
23,A15G U41A G53C U69C U78G,0
24,A15G U41A G55A U72C,0.12

row,Variant,self-cleavage
1,A15G U41A U78A,0.22
2,A15G U41C A45G A57G U66A U67C,0.16
3,A15G U41C A56G U72C U76C C79U,1.3
4,A15G U41C A64G U72C,0.92
5,A15G U41C C44A A64G U72C U78C,0.07
6,A15G U41C U43C,0.37
7,A15G U41C U54C G61A,0.31
8,A15G U41C U69G U74C,0.21
9,A15G U41C U72A,0.31
10,A15G U41C U72C U78C,1.14
11,A15G U43A C81U,1.1
12,A15G U43A U54A U78A,1
13,A15G U43A U66C,0.25
14,A15G U43A U76C,1.11
15,A15G U43C A64U,0.14
16,A15G U43C U49C U60C,0.07
17,A15G U43C U67C U74A U76C,0.11
18,A15G U48C A57G U67A U69C,0.08
19,A15G U48C U49C A64G,0.16
20,A15G U48C U54C U76C,0.2
21,A15G U48C U60C,0.1
22,A15G U49A A64G,0.28
23,A15G U49C A56U,0.21
24,A15G U49C G70A,0.21

row,Variant,self-cleavage
1,A15G U49C U60C U80C,0.23
2,A15G U49C U67C,0.13
3,A15G U51A U54C A64G,0.93
4,A15G U51A U69A,0.29
5,A15G U51A U72C,1.19
6,A15G U51C A57G U66C U72G,0.18
7,A15G U51C A64G,0.33
8,A15G U51C C59U,0.66
9,A15G U51G G53A,1.13
10,A15G U54A U58C U69C,0.31
11,A15G U54C A56G A65G,0.2
12,A15G U54C A56U U66C U69C U78A,0.18
13,A15G U54C G63U U76C,0.66
14,A15G U54C U67C,0.14
15,A15G U54C U67C U72C,0.25
16,A15G U58A U74C,0.29
17,A15G U58C U69A,0.34
18,A15G U58C U69C C81G,0.23
19,A15G U60A U72C,0.61
20,A15G U60A U74C A75G,0.41
21,A15G U60C A75U,0.24
22,A15G U60C U69A,0.26
23,A15G U60C U72A U80G,0.33
24,A15G U60C U80C,0.25

row,Variant,self-cleavage
1,A15G U66C G70A,0.29
2,A15G U67C U80C,0.24
3,A15G U72A U80C,0.61
4,A15G U72C A75G,1.21
5,A15U A18G A20G C40A,0.11
6,A15U A18G A28C U31A U43C A56U U78C,0.14
7,A15U A18G A45G U49C C59A A64G,0.1
8,A15U A18G A47U,0.1
9,A15U A18G A57G U60A U78C,0.17
10,A15U A18G A65G C71U U80A,0.13
11,A15U A18G C34U A35G C62A,0.05
12,A15U A18G U25C A45G U54A,0.42
13,A15U A18G U26C U31C A35U G53C,0.06
14,A15U A18G U26C U54C A64U U69C,0.71
15,A15U A18G U31C C32U U51C U67C U74A,0.06
16,A15U A18G U31C U43C A45U,0.2
17,A15U A18U C23A A57G,0.18
18,A15U A18U C29U G52A,0.41
19,A15U A18U C39U U51G U58C,0.17
20,A15U A18U U26A U31C A35U G36A G46U,0.12
21,A15U A18U U26C A45C,0.36
22,A15U A18U U31A,0.14
23,A15U A18U U31A A35G U78C,0.28
24,A15U A18U U54G U76A,0.05

row,Variant,self-cleavage
1,A15U A20C C44U U76C,0.24
2,A15U A20G A28C G33A U48C G52U U58A,0.07
3,A15U A20G A28G U41A,0.18
4,A15U A20G A28G U54C U72A,0.14
5,A15U A20G A28U C71U,0.16
6,A15U A20G A35G,0.92
7,A15U A20G A35G G36A U43C,0.15
8,A15U A20G A35G U69C,0.94
9,A15U A20G A77U U78C,0.51
10,A15U A20G U26A U60C U69C,0.08
11,A15U A20G U26G U41A U49C A57G,0.04
12,A15U A20G U31C C59A U69A,0.07
13,A15U A20G U41C U49C U72A,0.11
14,A15U A20G U51C U72A U74C,0.99
15,A15U A20U A35G G73A,1.13
16,A15U A20U A64G A77U,0.08
17,A15U A20U C39U,0.2
18,A15U A20U U25C A45G,0.05
19,A15U A20U U31C U43A U54C U60A,0.12
20,A15U A21C A35G U48C U54C U66C U76C,0
21,A15U A21C U54C U60C A64U,0.19
22,A15U A21G A28G U49C A57G,0.07
23,A15U A21G A64G U67C U76A,0.19
24,A15U A21G G24A U25C,0.16

row,Variant,self-cleavage
1,A15U A21G G33A A35G U58A U69A,0.08
2,A15U A21G U31C A47U U60G U74C,0
3,A15U A21G U41C U72A,0.16
4,A15U A21G U78C,0.52
5,A15U A21U U26C G42A G55U U58C A65G,0.05
6,A15U A21U U31C C32A U78A,0.09
7,A15U A28G A64U,0.25
8,A15U A28G C40A U41C U49C,0.08
9,A15U A28G U31C G46C U69A U80C,0.04
10,A15U A28G U67C,0.1
11,A15U A28U A56G,0.23
12,A15U A28U C68U,0.26
13,A15U A28U G46U,0.14
14,A15U A28U U43C U54G U72A,0.11
15,A15U A28U U51G U76A,0.2
16,A15U A35G A45U,1.22
17,A15U A35G A56G,1.3
18,A15U A35G A56G U60C,0.97
19,A15U A35G G42A,0.2
20,A15U A35U U49A A56U,0.82
21,A15U A35U U51A U54A U60C U72C,0.21
22,A15U A35U U54C U69A U72C,0.11
23,A15U A35U U74A,0.96
